Test results as given in ChEMBL document CHEMBL5308541, “MAIP: An Open-Source Tool to Enrich High-Throughput Screening Output and Identify Novel, Druglike Molecules with Antimalarial Activity” (ACS Med Chem Lett, 2023).
In all, about 150,000 compounds went through this assay and about 540 (0.36%) showed an effect of 50% or more. Some of the results follow.

Tested on: Plasmodium falciparum
Experiment: Primary screen in NF54 nanoGlo assay, in single point, at 2uM, 72h; a lower Z score goes with more inhibition
Assay type: functional, Erythrocyte
Conditions: timepoint 72 hour

| SMILES | % Inhibition [%] | Z score |
| --- | --- | --- |
| N#Cc1cnc(N2CCC(c3c[nH]c4cc(F)ccc34)CC2)cn1 | 4 | -0.72 |
| CCCCNCc1[nH]c2ccccc2c1Cl | -4 | 0.75 |
| CCN1CCN(C2(CNc3oc(-c4ccc(Cl)cc4)nc3C#N)CCCCC2)CC1 | 6 | -0.98 |
| CC1(C)NC(=O)N(C[C@H](O)CN2CCN(c3nsc4ccccc34)CC2)C1=O | -2 | 0.39 |
| CCC1NCCC1NS(=O)(=O)C1CC1 (stereo not drawn) | 5 | -1.04 |
| CC(C)C1N(C)CC12C[C@@H](O)[C@H](NCc1ccc3occc3c1)C2 (stereo partly drawn) | -1 | 0.09 |
| COc1ccc(OC)c2[nH]c(C(=O)Nc3cccc(OCCN4CCOCC4)c3)cc12 | -3 | 0.48 |
| CCN1CCN(C(C)(C)CNc2ncc(F)c(NC)n2)CC1 | 2 | -0.38 |
| CC(CN1CCOCC1)N1CCCC(Oc2ccc(Cl)cn2)C1 (stereo not drawn) | 5 | -0.95 |
| c1cn2nc(N[C@H]3CCN(CC4CCOCC4)C3)ccc2n1 | -4 | 0.57 |
| Cc1cc(N2CCC(NC(=O)N3CCC(N4CCCC4)CC3)CC2)nc(C)n1 | 1 | -0.17 |
| COc1ccc2nc(C=Cc3cccc(F)c3)sc2c1 | -13 | 2.01 |
| c1ccc2c(CCNc3ccc(-c4nc(C5CC5)no4)cn3)c[nH]c2c1 | -15 | 2.22 |
| Cc1cc(NCc2ccc(CN3CCOCC3)cc2)nc2ccccc12 | 0 | 0.06 |
| O=C(CN1CCOC1=O)N1CCc2[nH]cnc2C1 | -1 | 0.14 |
| Oc1ccc(-c2ccnc3ccccc23)cc1OC(F)(F)F | 2 | -0.38 |
| CN1CCC[C@H](N2CCN(C(=O)c3ccnc4ccncc34)CC2)C1 | -3 | 0.4 |
| Cc1ccc2cc(CN3CCNCC3)c(N3CCN(CCO)CC3)nc2c1 | 8 | -1.77 |
| CC(C)C[C@H]1CN(C)CCN1C(=O)c1ncnc2[nH]ccc12 | 0 | -0.06 |
| COc1ccnc(NCc2ccc(N3CC(C)OC(C)C3)nc2)n1 (stereo not drawn) | -7 | 1.27 |
| O[C@H]1CCCN(c2ccnc(NCCCn3ncc4ccccc43)n2)C1 | -7 | 1.14 |

| SMILES | % Inhibition [%] | Z score |
| --- | --- | --- |
| COc1cccc2c1OC[C@@H](Nc1nccc(N3CCC(O)CC3)n1)C2 | -22 | 3.84 |
| CCn1ccc2cc(NC(=O)c3cc(=O)c4ccccc4[nH]3)ccc21 | 4 | -0.93 |
| c1ccc2c(Nc3ccc(Nc4cccc5ccccc45)cc3)cccc2c1 | -12 | 1.99 |
| c1cc2cc(-c3cn([C@H]4CCCNC4)nn3)ccc2[nH]1 | 8 | -1.16 |
| COc1ccccc1OCCN1CCCN(S(=O)(=O)c2cccc3cnccc23)CC1 | -10 | 1.52 |
| Cn1cc(-c2ncc(C(=O)NC3CCN(C[C@H]4CCOC4)CC3)s2)cn1 | -11 | 1.64 |
| Cc1cc2cc[nH]c2cc1NC(=O)N1CCN(c2cnccn2)CC1 | -8 | 1.55 |
| CN(CCCCN1CCOCC1)Cc1cccc2nonc12 | -4 | 0.77 |
| Cc1nc(NC[C@@H](c2cccnc2)N2CCCCC2)c2ccsc2n1 | 11 | -1.93 |
| O=C(C1CCCC1)N1CC[C@H](Nc2nnc(-c3ccccn3)s2)C1 | -16 | 3.13 |
| CN(CCC1CCN(c2ccncc2)CC1)C(=O)c1cc2sccc2[nH]1 | 4 | -0.66 |
| CN1CCN(C(=O)CN2CCCC[C@H](N3CCN(C)CC3)C2)CC1 | 1 | -0.22 |
| CCNc1nc(NCC)nc(Nc2ccc(Cl)c(Cl)c2)n1 | 1 | -0.14 |
| COc1cc(C(=O)O)cc(C(=O)N(C)Cc2cc(C)no2)c1 | 1 | -0.16 |
| Cc1cc2cc(NC(=O)C3(N)CCCC3)ccc2o1 | -17 | 2.94 |
| CN(Cc1cc(O)c2ccccc2n1)CC1CCN(CCc2ccc(F)cc2)CC1 | -11 | 1.92 |
| CC(C)C1CN(C(=O)c2cccc(CN)c2)CC(c2ccccc2)O1 (stereo not drawn) | -6 | 0.95 |
| O=C1CCCC1C1CCCN1C(=O)C(O)Cc1cccc(C(F)(F)F)c1 (stereo not drawn) | -6 | 0.96 |
| Cc1nc(NC(CO)CO)ccc1Br | -11 | 2.27 |
| CCNc1ncc(C(=O)N[C@@H]2CCCC[C@H]2OCc2ccccc2)cn1 | -3 | 0.57 |
| Cc1[nH]nc2ncc(NC(=O)[C@H]3CCCN(CC(F)(F)F)C3)cc12 | 6 | -1.21 |

| SMILES | % Inhibition [%] | Z score |
| --- | --- | --- |
| CCc1nc(NC[C@@H](c2ccncc2)N2CCOCC2)c2cnn(C)c2n1 | -5 | 1.08 |
| Cc1cc(-c2c[nH]c3ncccc23)nc2cc(F)ccc12 | 3 | -0.53 |
| Cc1ccccc1CN1CCC(CNC(=O)c2n[nH]c3c2COc2ccccc2-3)CC1 | -7 | 1.27 |
| CC(C)N1CCC(N2CC[C@H](C3CCN(c4ncccn4)CC3)C2)CC1 | -6 | 1 |
| O=C(CN1CCCCCC1)N1CCC2(CC1)CCC(O)(CN1CCc3ccccc31)CC2 | -17 | 3.07 |
| c1cc(NC[C@H]2CCCOC2)nc(-n2cnc3ccccc32)c1 | -12 | 1.79 |
| CNc1cc(N2CCC[C@@H]2CNc2nn3cc(C)nc3s2)ncn1 | 3 | -0.5 |
| O=S(=O)(Nc1ccc(N2CCC(NCCCN3CCc4ccccc43)CC2)cc1)c1ccccc1 | 8 | -1.44 |
| O=C1CN(C(=O)c2ccnc3ccccc23)CCN1Cc1ccccc1F | 68 | -13.41 |
| COc1ccc2c(C(=O)N[C@@H](C)c3csc(C)n3)cc(C)nc2c1 | -10 | 1.79 |
| C[C@@H](CCCC(C)(C)O)NCc1cc(O)c2cc(F)ccc2n1 | 0 | 0.05 |
| CCC1CCCCN1CCNC(=O)C(C)CN(C)C(=O)OC(C)(C)C (stereo not drawn) | -2 | 0.47 |
| CC(C)(C)c1nccc(N2CCC(NC3CCOCC3)CC2)n1 | -1 | 0.17 |
| CCNc1ncc(C(=O)NC2CCN(CCc3ccccc3)CC2)cn1 | -5 | 0.96 |
| Cc1c(CN2CCN(CCOc3ccccc3)CC2)[nH]c2ccc(F)cc12 | 6 | -1.19 |
| Cc1n[nH]cc1C1CCN(C(=O)[C@@H]2CN(C)C(=O)c3ccccc32)CC1 | -2 | 0.42 |
| Nc1cc(N2CCC(c3nc4cc(F)ccc4[nH]3)CC2)nc(N2CCOCC2)n1 | 52 | -10.32 |
| Cc1cccc(-c2cnc(-c3ccncc3)nc2C2CCN(C(=O)c3cc(CC(C)C)on3)CC2)c1 | 4 | -0.8 |
| F[C@H]1C[C@@H](CNCc2ccc3occc3c2)N(Cc2cncnc2)C1 | -9 | 1.33 |
| CN(C)c1nc2c(c(NCCCNc3cccnc3)n1)CCCC2 | -4 | 0.63 |
| N#Cc1cnn(-c2cc(Nc3ccc(OC(F)(F)F)cc3)ncn2)c1N | 12 | -1.89 |

| SMILES | % Inhibition [%] | Z score |
| --- | --- | --- |
| NC(=O)[C@@H]1CCCN1C1CCN(C(=O)c2cc3c(Br)cccc3[nH]2)CC1 | -5 | 0.9 |
| C[C@@H](c1cccc(-c2cc(-n3cccn3)ncn2)c1)N1CCCC1 | 7 | -1.4 |
| O=C(Cc1c[nH]c2ccccc12)Nc1cc(N2CCN(c3ccccc3)CC2)ncn1 | -6 | 1.05 |
| Cc1nc(N)ccc1-c1cccc(C(=O)N2CCCC[C@@H]2CN2CCCC2)c1 | 8 | -1.36 |
| C[C@@H](c1ccccc1F)N1CCN(CC(=O)N(C)C(C)(C)C#N)CC1 | -9 | 1.6 |
| Cc1ccc2cc(-c3ccc(C(=O)N4CC(N5CCCCC5)C4)cc3)ccc2n1 | -7 | 1.21 |
| c1cc(CN2CCC(c3c[nH]c4ncccc34)CC2)c2c(c1)OCCO2 | 3 | -0.45 |
| O=C(NCCn1ccccc1=O)N1CCC2(c3ccccc3)C(C1)C2(F)F (stereo not drawn) | -1 | 0.12 |
| Cc1ccc(N2CCC(N3CCCN(C)C4(CCN(C)CC4)C3)CC2)cc1 | -16 | 3.35 |
| Cc1nc(-c2ccc(CNc3nccc(-c4ccncc4)n3)cc2)no1 | 4 | -0.92 |
| CCOc1cc(NC2CCN(c3nc(OC)cc(C(F)(F)F)n3)CC2)ncn1 | 1 | -0.1 |
| CCOCc1cn(Cc2nn(C)cc2Cl)nn1 | -1 | 0.21 |
| CCN(C[C@H](O)c1ccc(C)cc1)C(=O)c1noc2c1CC(C)(C)CC2 | -5 | 0.9 |
| Cc1nc2c(C#N)cnn2c(O)c1CC(=O)Nc1ccc(-c2nc3ccccc3[nH]2)cc1 | -8 | 1.57 |
| CC(C)N1CCN(CCCN2CCC(OC3CCCC3)CC2)CC1 | 8 | -1.61 |
| Cc1ccc(C)c(OCCN(C)c2cc(C3CC(O)C3)nc(C)n2)c1 (stereo not drawn) | -8 | 1.41 |
| CCn1cc(NC2CCN(c3cccc(-c4ccc(F)cc4)c3)CC2)nn1 | -5 | 1.01 |
| CC(C)c1noc(-c2ccnc(NCCOc3cccnc3)c2)n1 | -12 | 2.09 |
| COc1ccc2[nH]cc(C3=CCN(c4ccc5nnc(-c6ccccc6F)n5n4)CC3)c2c1 | 51 | -8.85 |
| CCCOc1cc(CNc2cnc3cc(F)c(F)cc3n2)ccn1 | 3 | -0.49 |
| Cc1noc(C)c1-c1c(-c2ccccc2)ncn1CCOc1cccc2cccnc12 | 0 | 0.07 |
